Results on one compound are retold here after patent US20070082856A1, “Combination therapy comprising the use of et-743 and doxorubicin for treating cancer” (Pharma Mar, S.A.U., priority 2003, published 2007).

For series [1], the system named is untreated metastatic soft tissue sarcomas (STS) and advanced pre-treated anthracyline-naïve breast cancer (ABC). Briefly: Phase I clinical trial (Example 1): antitumor activity of ET-743 in combination with doxorubicin. On the set-up: key to BEST RESP: confirmed partial response (PR); long lasting (>6 months) stable disease (SD). In kind it is in vivo, human. The method, then:
In this multicenter dose and LTS finding trial, patients were assigned consecutively to start either with sequence A (ET-743 before Doxo) or with the reverse sequence (B) at the following dose levels every 21 days: […] Oral steroids premedication for ET-743 was given 24 h before and for 48 h following the day of treatment. […] Patients continued treatment until progressive disease (PD) or intolerance, and were […] 2 cycles for activity. In this study, 22 patients were enrolled and evaluable. The patients were required to have normal liver, renal, cardiac and haematologic functions and good performance status for entry into the study. Enrolment was restricted to breast cancer and soft tissue sarcoma.

For series [2] the following is noted: human, in vivo.

For the compound `COc1cc2c(cc1O)CCN[C@]21CS[C@@H]2c3c(OC(C)=O)c(C)c4c(c3[C@H](COC1=O)N1[C@@H]2[C@H]2c3c(cc(C)c(OC)c3O)C[C@@H]([C@@H]1O)N2C)OCO4` [ET-743, ecteinascidin 743], the “patients with confirmed partial response (PR)” value in series [1] (ET-743 dose level 600 μg/m^2 + Doxo 60 mg/m^2) came out at 2; in series [1] (ET-743 dose level 700 μg/m^2 + Doxo 60 mg/m^2) it was 1; in series [1] (ET-743 dose level 800 μg/m^2 + Doxo 60 mg/m^2), 2. In addition, the “TTP (Time to Progression)” value is recorded as 5 months in series [1] (PT # 3, STS, ET-743 600 μg/m^2 + Doxo 60 mg/m^2); 12 months in series [1] (PT # 5, STS, ET-743 600 μg/m^2 + Doxo 60 mg/m^2); 5 months in series [1] (PT # 9, STS-ovary, ET-743 600 μg/m^2 + Doxo 60 mg/m^2); 5 months in series [1] (PT # 10, STS, ET-743 600 μg/m^2 + Doxo 60 mg/m^2); 6+ months in series [1] (PT # 11, STS-uterus, ET-743 700 μg/m^2 + Doxo 60 mg/m^2); 7+ months in series [1] (PT # 13, STS, ET-743 700 μg/m^2 + Doxo 60 mg/m^2). The “TTP (Time to Progression)” value was 4 months in series [1] (PT # 15, STS-uterus (prior adjuvant doxo-6 cycles), ET-743 800 μg/m^2 + Doxo 60 mg/m^2); 5+ months in series [1] (PT # 16, ABC, ET-743 800 μg/m^2 + Doxo 60 mg/m^2); 6+ months in series [1] (PT # 18, STS-cervix, ET-743 800 μg/m^2 + Doxo 60 mg/m^2); 4+ months in series [1] (PT # 21, STS, ET-743 800 μg/m^2 + Doxo 60 mg/m^2). For the same compound, the “BEST RESP” value was “PR” in series [1] (PT # 3, STS, ET-743 600 μg/m^2 + Doxo 60 mg/m^2, LN, lung, bone); “SD” in series [1] (PT # 5, STS, ET-743 600 μg/m^2 + Doxo 60 mg/m^2, Pelvis, bone); “PR” in series [1] (PT # 9, STS-ovary, ET-743 600 μg/m^2 + Doxo 60 mg/m^2, Abdo, skin); “SD” in series [1] (PT # 10, STS, ET-743 600 μg/m^2 + Doxo 60 mg/m^2, Lung); “SD” in series [1] (PT # 11, STS-uterus, ET-743 700 μg/m^2 + Doxo 60 mg/m^2, Lung); “PR” in series [1] (PT # 13, STS, ET-743 700 μg/m^2 + Doxo 60 mg/m^2, Lung, mediastinum, LN). The “BEST RESP” value was “PR” in series [1] (PT # 15, STS-uterus (prior adjuvant doxo-6 cycles), ET-743 800 μg/m^2 + Doxo 60 mg/m^2, Abdomen, pelvis); “PR” in series [1] (PT # 16, ABC, ET-743 800 μg/m^2 + Doxo 60 mg/m^2, Pleura, chest wall, LN); “SD” in series [1] (PT # 18, STS-cervix, ET-743 800 μg/m^2 + Doxo 60 mg/m^2, Lung); “SD” in series [1] (PT # 21, STS, ET-743 800 μg/m^2 + Doxo 60 mg/m^2, Lung, subcutaneous). Also, the “toxicity that defined the MTD” value in series [2] is on record as “prolonged grade 4 neutropenia/febrile neutropenia”.
